The text below walks through data of the antibiotic and cytotoxicity screens of Wong et al. (2023).

The list shows a part of the results.

One assay relates to HSkMC. Nature of the assay: cytotoxicity call (relative viability < 0.9). As to conditions: 10 µM.
A further assay concerns S. aureus RN4220. Nature of the assay: growth inhibition call (relative growth <= 0.2). As to conditions: 50 µM.

Consider `C[C@@H](O)[C@H](N)C(=O)N[C@@H](CCCCN)C(=O)N1CCC[C@H]1C(=O)N[C@@H](CCCNC(=N)N)C(=O)O`, for which the cytotoxicity call with HSkMC was “inactive”. For the same compound, in the assay on S. aureus RN4220, the growth inhibition call is “inactive”.
For the compound `C[C@@H]1CN([C@H](C)CO)C(=O)c2cc(C#CC3(O)CCCC3)cnc2O[C@H]1CN(C)C(=O)Cc1ccccc1`, the cytotoxicity call in the assay on HSkMC was “inactive”. For the same compound, in the assay with S. aureus RN4220, the growth inhibition call is “inactive”.
For the compound `C[C@@H]1CCCCO[C@H](CN(C)C(=O)NC2CCCCC2)[C@@H](C)CN([C@H](C)CO)C(=O)c2cc(NC(=O)c3ccccc3)ccc2O1`, the cytotoxicity call in the assay on HSkMC is “inactive”. In the assay with S. aureus RN4220, the growth inhibition call is “inactive”.
Turning to `COc1ccc(NC(=O)Nc2ccc3c(c2)C(=O)N([C@@H](C)CO)C[C@@H](C)[C@@H](CN(C)S(=O)(=O)c2ccc(F)cc2)OCCCC[C@@H](C)O3)cc1`, the cytotoxicity call in the assay on HSkMC is “inactive”. In the assay with S. aureus RN4220, the growth inhibition call is “inactive”.
On to `COc1ccc(NC(=O)Nc2ccc3c(c2)CC(=O)N([C@@H](C)CO)C[C@@H](C)[C@H](CN(C)C(=O)Nc2cccc4ccccc24)O3)cc1`, for which the cytotoxicity call with HSkMC was “inactive”. In addition, the growth inhibition call in the assay with S. aureus RN4220 was “inactive”.
`CC(C)NC(=O)N(C)C[C@@H]1Oc2cc(C#Cc3ccccn3)ccc2S(=O)(=O)N([C@@H](C)CO)C[C@H]1C`: the cytotoxicity call in the assay with HSkMC is “inactive”. Further, the growth inhibition call with S. aureus RN4220 is “inactive”.
As to `COc1ccc(NC(=O)N(C)C[C@H]2Oc3ccc(NS(=O)(=O)c4cn(C)cn4)cc3CC(=O)N([C@@H](C)CO)C[C@H]2C)cc1`, the cytotoxicity call with HSkMC was “inactive”. Also, the growth inhibition call with S. aureus RN4220 is “inactive”.
For the compound `C[C@H](CO)N1C[C@H](C)[C@@H](CN(C)Cc2ccccc2F)Oc2cc(C#CC3CC3)ccc2S1(=O)=O`, in the assay with HSkMC, the cytotoxicity call was “inactive”. Moreover, the growth inhibition call in the assay on S. aureus RN4220 was “inactive”.
As for `CCCCN1CC=C[C@@]23O[C@@H]4C=CCCOC(=O)[C@@H]4[C@H]2C(=O)N([C@@H](C)CO)[C@@H]3C1=O`, the cytotoxicity call with HSkMC is “inactive”. In addition, in the assay on S. aureus RN4220, the growth inhibition call is “inactive”.
On to `Cc1ccc(S(=O)(=O)Nc2ccc3c(c2)CC(=O)N([C@@H](C)CO)C[C@H](C)[C@H](CN(C)Cc2ccc(-c4ccccc4)cc2)O3)cc1`, for which the cytotoxicity call in the assay with HSkMC is “active”. Besides, the growth inhibition call in the assay on S. aureus RN4220 was “inactive”.
For `C[C@@H]1CN([C@@H](C)CO)C(=O)c2cc(NC(=O)CCN3CCOCC3)ccc2O[C@H]1CN(C)CC1CCCCC1` the same measures were “inactive” and “inactive”.
The matching figures for `CO[C@@H]1[C@@H](O[C@@H]2O[C@H](C)[C@@H](O[C@H]3C[C@@](C)(O)[C@@H](O)[C@H](C)O3)[C@H](N(C)C)[C@H]2O)[C@@H](CC=O)C[C@@H](C)[C@@H](O[C@H]2CC[C@H](N(C)C)[C@@H](C)O2)/C=C/C=C/C[C@@H](C)OC(=O)C[C@H]1O`: “inactive” and “active”.
The matching figures for `CN1C(=O)c2cc(NC(=O)c3ccc(F)c(F)c3)ccc2OC[C@H]2O[C@H](CC(=O)N3CCOCC3)CC[C@H]21`: “inactive” and “inactive”.
`N[C@H](CO)COCc1ccccc1`: the cytotoxicity call with HSkMC is “inactive”. In addition, the growth inhibition call in the assay on S. aureus RN4220 is “inactive”.
`C[C@@H]1CN([C@@H](C)CO)C(=O)c2cc(NC(=O)Nc3cccc4ccccc34)ccc2O[C@@H](C)CCCCO[C@@H]1CN(C)S(=O)(=O)c1ccc(Cl)cc1`: the cytotoxicity call in the assay with HSkMC is “inactive”. The growth inhibition call in the assay on S. aureus RN4220 was “inactive”.
With `Cc1noc(C)c1S(=O)(=O)N(C)C[C@@H]1Oc2ccc(NC(=O)Cc3ccccc3)cc2CC(=O)N([C@@H](C)CO)C[C@H]1C`, in the assay on HSkMC, the cytotoxicity call is “inactive”. Also, in the assay with S. aureus RN4220, the growth inhibition call is “inactive”.
Regarding `C[C@H]1CN([C@@H](C)CO)S(=O)(=O)c2ccc(C#CCN(C)C)cc2O[C@@H]1CN(C)Cc1ccc2c(c1)OCO2`, the cytotoxicity call with HSkMC was “inactive”. For the same compound, in the assay on S. aureus RN4220, the growth inhibition call is “inactive”.
As for `COc1cc(C(=O)OCCCN2CCCN(CCOC(=O)c3cc(OC)c(OC)c(OC)c3)CC2)cc(OC)c1OC`, the cytotoxicity call in the assay with HSkMC was “inactive”. The growth inhibition call in the assay with S. aureus RN4220 was “inactive”.
For the compound `C[C@@H]1CN([C@@H](C)CO)C(=O)c2cccc(NS(=O)(=O)c3ccccc3)c2O[C@H]1CN(C)S(=O)(=O)c1cn(C)cn1`, in the assay on HSkMC, the cytotoxicity call is “inactive”. Besides, the growth inhibition call in the assay on S. aureus RN4220 is “inactive”.
For `C[C@H]1CN([C@@H](C)CO)C(=O)c2cccc(NC(=O)NC3CCCCC3)c2O[C@H]1CN(C)C(=O)Nc1cccc2ccccc12`, the cytotoxicity call in the assay on HSkMC is “inactive”. Further, in the assay with S. aureus RN4220, the growth inhibition call is “inactive”.
For `COc1ccc(NC(=O)N(C)C[C@H]2OCCCC[C@H](C)Oc3ccc(NC(=O)Cc4ccccc4)cc3C(=O)N([C@@H](C)CO)C[C@H]2C)cc1`, the cytotoxicity call in the assay with HSkMC is “inactive”. Moreover, the growth inhibition call in the assay with S. aureus RN4220 was “inactive”.
As to `Cc1ccc(S(=O)(=O)n2cc([C@@H]3CC(=O)N(C(=O)OCc4ccccc4)[C@@H]3C(=O)Nc3cccc4cccnc34)c3ccccc32)cc1`, the cytotoxicity call in the assay with HSkMC was “inactive”. Moreover, in the assay with S. aureus RN4220, the growth inhibition call is “inactive”.
Turning to `CC(C)(C)[C@H]1CCc2c(sc3nc(-c4ccccc4)cn23)C1`, in the assay with HSkMC, the cytotoxicity call is “inactive”. In addition, the growth inhibition call with S. aureus RN4220 is “inactive”.
Take `C[C@H](CO)N1C[C@H](C)[C@@H](CN(C)C(=O)CN(C)C)Oc2cc(C#C[C@@H](C)O)ccc2S1(=O)=O`: the cytotoxicity call with HSkMC was “inactive”. The growth inhibition call with S. aureus RN4220 is “inactive”.
For `C[C@@H]1CN([C@H](C)CO)C(=O)c2cc(NS(=O)(=O)c3cccs3)ccc2O[C@@H](C)CCCCO[C@H]1CN(C)Cc1ccc2c(c1)OCO2`, the cytotoxicity call in the assay with HSkMC was “inactive”. Besides, the growth inhibition call in the assay with S. aureus RN4220 is “inactive”.
Consider `COc1ccc(NC(=O)N(C)C[C@@H]2OCCCC[C@@H](C)Oc3ccc(NS(=O)(=O)c4ccc(C)cc4)cc3C(=O)N([C@H](C)CO)C[C@H]2C)cc1`, for which, in the assay with HSkMC, the cytotoxicity call was “inactive”. Also, the growth inhibition call in the assay on S. aureus RN4220 was “inactive”.
As to `COc1ccc(NC(=O)Nc2ccc3c(c2)C(=O)N([C@H](C)CO)C[C@H](C)[C@H](CN(C)C(=O)NC2CCCCC2)OCCCC[C@H](C)O3)cc1`, in the assay on HSkMC (human skeletal muscle cells), the cytotoxicity call is “inactive”. In addition, in the assay on S. aureus RN4220, the growth inhibition call is “inactive”.
Consider `[N-]=[N+]=Nc1ccccc1C[C@@]1(C(=O)N2CCCCC2)N=C(c2ccc(OCCCO)cc2)O[C@@H]1c1ccccc1`, for which, in the assay with HSkMC, the cytotoxicity call is “inactive”. For the same compound, the growth inhibition call in the assay with S. aureus RN4220 was “inactive”.
